This note sets out measurements from ChEMBL document CHEMBL4888484, “Replenishing the malaria drug discovery pipeline: Screening and hit evaluation of the MMV Hit Generation Library 1 (HGL1) against asexual blood stage Plasmodium falciparum ,using a nano luciferase reporter read-out” (2022).

About 540 (0.36%) of roughly 150,000 compounds showed an effect of 50% or more. This is one part of the list.

The experiment relates to Plasmodium falciparum. Briefly: Primary screen in NF54 nanoGlo assay, in single point, at 2uM, 72h; a lower Z score goes with more inhibition. The class given is functional, Erythrocyte. The following applies: timepoint 72 hour.
Consider `COCCNC(=O)N(C)Cc1nccn1CC(F)(F)F`, for which the % Inhibition (as a rule, the change of the read-out against control, counted positive when it falls) was -10% and the Z score came to 0.93.
For `Cc1cc(C(=O)N2CCN(Cc3cc4ccccc4o3)CC2)ncn1`, the “% Inhibition” value is -15% and the Z score worked out at 1.37.
The like results for `CCc1cc(C(=O)Nc2ccc(Cl)cc2F)nc2ccnn12` were, in that order, 6% and -0.98.
As for `O=S(=O)(Cc1csc(N2CCOCC2)n1)c1ccccc1`, the “% Inhibition” value was -7% and the Z score is 1.29.
`CO[C@H]1CC[C@@]2(OC)CCN(Cc3cnc(-c4cccc(C)c4)nc3)[C@H]2C1`: the “% Inhibition” value was 2% and the Z score is reported as -0.29.
On the same counts, the results for `CCCc1ccc(CN2CCn3nc(C(=O)N4CCN(C)CC4)cc3C2)o1` are -6% and 0.85.
For `Cc1c(-c2nc3c([nH]2)c(-c2cccnc2)nn3C)cnn1-c1ccccc1`, the “% Inhibition” value worked out at 12% and the Z score is recorded as -1.61.
The like results for `O=C(Cc1csc(N2CCCNC2=O)n1)Oc1ccc(Cl)cc1Cl` were, in that order, -1% and 0.17.
For `O=C(NCc1ccccc1)c1ccccc1N1C(=O)[C@@H]2Cc3c([nH]c4ccccc34)C(c3cccc(Cl)c3)N2C1=O` (some centres undefined), the “% Inhibition” value was found to be 10% and the Z score is -0.93.
On the same counts, the results for `CC(C)N(C)S(=O)(=O)c1ccccc1` are 1% and -0.12.
On the same counts, the results for `C=CCN1C(=O)C(C(=O)N(Cc2ccccc2)Cc2ccccc2)[C@H]2C[C@@]1(C)Oc1ccccc12` (some centres undefined) are 2% and -0.3.
On the same counts, the results for `FC(F)(F)c1nnc2ccc(N(CC3CCCCC3)C3CC3)nn12` are 1% and -0.12.
For the molecule `Cc1cccc(NC(=O)c2ccc(=O)n(CCC(=O)N3CCOCC3)n2)c1`, the “% Inhibition” value is on record as -13% and the Z score turned out to be 1.76.
The like results for `Cc1cc(C)nc(NCCS(=O)(=O)CC(C)C)n1` were, in that order, -6% and 0.96.
On the same counts, the results for `CC(C)c1nc(CNS(=O)(=O)c2cccs2)n(-c2ccccn2)n1` are -1% and 0.1.
Turning to `Cc1nn(C)c(Cl)c1CN1CCc2[nH]cnc2[C@H]1c1cccc(O)c1`, the “% Inhibition” value is recorded as -13% and the Z score amounted to 2.41.
On the same counts, the results for `COC[C@@H](O)CN(Cc1ccco1)Cc1c(C)nn(-c2ccccc2)c1Oc1ccc(C)cc1` are 17% and -1.88.
On the same counts, the results for `CN(C(=O)CCOC1CCOCC1)c1cc(Cl)cc(Cl)c1` are -18% and 3.51.
On the same counts, the results for `COCCc1noc([C@@H]2CCCN2Cc2ccc3cc(NC(C)=O)ccc3n2)n1` are -11% and 2.13.
As for `CCCn1nccc1-c1ccc(NC2CC2)nn1`, the “% Inhibition” value is -18% and the Z score is 2.3.
On the same counts, the results for `Cc1ccc(Nc2ccc3nc(-c4ccc(S(=O)(=O)Nc5ccc(C)cc5)cc4)nc4c3c2C(=O)c2ccccc2-4)cc1` are -4% and 0.42.
The like results for `O=C(Cc1ccc(S(=O)(=O)Nc2ccccc2)s1)N1CCCC1` were, in that order, -8% and 1.6.
Regarding `COc1ccc(-c2n[nH]c(C)c2CC(=O)NCC2(c3ccc(OC)cc3)CCOCC2)cc1`, the “% Inhibition” value is listed as -3% and the Z score worked out at 0.38.
On the same counts, the results for `CCN(CC)CCNC(=O)c1c(N2CCCC2=O)c2cc(F)ccc2n1CC` are -1% and 0.13.
On the same counts, the results for `CC[C@H](Nc1nc(C2CCCC2)nc2c1CNC2)c1cc(C)ccn1` are -19% and 2.41.
With `CO[C@@H](C)C(=O)N1CCC2(CCC(=O)N(CCc3ccncc3)C2)CC1`, the “% Inhibition” value is on record as 3% and the Z score was -0.28.
As to `COCc1nc(-c2ccc(N3CCCC3=O)cc2)cs1`, the “% Inhibition” value is -7% and the Z score was 0.86.
On the same counts, the results for `CO[C@H]1CCN(CC(=O)NCCc2ccc(Cl)cc2)C1` are -11% and 1.82.
On the same counts, the results for `Cc1nc(-c2ccc(C(=O)NCC3CCOCC3)cc2)c2ccsc2n1` are -6% and 0.58.
The like results for `CCc1ccc(NC(=O)Cn2c(=O)n(Cc3ccccc3F)c(=O)c3sccc32)cc1` were, in that order, 7% and -1.02.
Turning to `O=C(COc1ccc(F)cc1)NC1CC2CCC1C2` (centres undefined), the “% Inhibition” value is reported as -17% and the Z score is given as 2.5.
The like results for `O=C(NCCCc1ccccc1)N1CC(Oc2nccs2)C1` were, in that order, -17% and 2.13.
On the same counts, the results for `Cc1nc2cc(C(=O)N3CCc4ccccc43)ccc2n1-c1ccc(Br)cc1` are 3% and -0.37.
On the same counts, the results for `CC(C)c1ccc(OC[C@H]2c3ccsc3CCN2C(=O)CN(C(=O)Nc2cccc(Cl)c2)C(C)C)cc1` are -11% and 1.02.
Take `Cc1ccc(N2CCN(Cc3ccc(C(=O)NCc4ccccc4F)cc3)CC2)cc1`: the “% Inhibition” value is recorded as -14% and the Z score was 1.29.
Consider `O=C(NC1CC1)[C@@H]1CN(Cc2ccc3cccc(Cl)c3n2)CCN1`, for which the “% Inhibition” value is listed as -28% and the Z score was found to be 2.84.
Take `Cc1cc(C)c(NC(=O)CN(C)C(=O)NCCCOC(C)C)c(C)c1`: the “% Inhibition” value is recorded as -1% and the Z score came to 0.11.
As to `Cc1[nH]c2c(-c3nc([C@H]4CCOC4)no3)cccc2c1C`, the “% Inhibition” value is -12% and the Z score came to 1.59.
As for `COc1ccccc1NC(=O)[C@@H](C)C1CCN(C(=O)Nc2ccc(Cl)cc2)CC1`, the “% Inhibition” value is given as -10% and the Z score was found to be 1.33.
Take `COc1ccc(C2=C[C@@H](c3ccccc3)n3nnnc3N2)cc1`: the “% Inhibition” value worked out at 9% and the Z score is recorded as -1.16.
For `COCCN(C)Cc1ccc(CC2CCN(Cc3cnn(C)c3C)CC2)cc1`, the “% Inhibition” value is reported as -11% and the Z score was 2.06.
The like results for `Cc1noc2ncnc(N3CCN(C)C[C@H]3c3ccccc3)c12` were, in that order, -12% and 1.21.
